Assay results from patent US20220213213A1 (published 2022).
Numbering of substitutions follows the chain as printed.

Target: T1, 5T4-Fc (obtained from Peter L. Stern, University of Manchester) (human, UniProt Q13641 32-355)
T1 construct: also called h5T4-Fc; recombinant 5T4; not shown: Fc part not specified
T1 sequence (looked up): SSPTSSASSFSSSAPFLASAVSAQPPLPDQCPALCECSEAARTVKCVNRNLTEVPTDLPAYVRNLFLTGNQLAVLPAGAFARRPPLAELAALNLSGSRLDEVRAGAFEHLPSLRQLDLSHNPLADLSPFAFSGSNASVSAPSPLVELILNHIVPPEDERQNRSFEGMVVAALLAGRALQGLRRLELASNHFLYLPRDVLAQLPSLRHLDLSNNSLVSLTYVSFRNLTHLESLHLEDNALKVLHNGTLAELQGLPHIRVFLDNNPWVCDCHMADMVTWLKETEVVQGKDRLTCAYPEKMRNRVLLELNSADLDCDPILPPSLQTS
Test: dual ELISA: coated 5T4-Fc, detection with CD137-bio
Method: Plates (#655074, Greiner Bio-One GmbH, Germany) were pre-coated with 0.5 μg/ml 5T4-Fc (obtained from Professor Peter Stern, University of Manchester) overnight. CD137-5T4 bsAb were diluted from 8 to 2×10⁻³ μg/ml in 1:4 dilutions and added in duplicates of 50 μl to each well. CD137-bio (Ancell #502-030) was used as detection antibody at 0.5 μg/ml and the binding was detected with Streptavidin-HRP (Pierce #21126). The ELISA was developed with SuperSignal ELISA PICO Chemiluminescent substrate (Thermo Scientific Pierce, Rockford, Ill. USA) during 2-10 minutes and read in an automated microplate based multi-detection reader (FLUOstar OPTIMA, Netherlands).

B1: 1200-1210 (bispecific antibody)
chain 1: EVQLLESGGGLVQPGGSLRLSCAASGFTFSSYAMSWVRQAPGKGLEWVSGISGGGGGTYYADSVKGRFTISRDNSKNTLYLQMNSLRAEDTAVYYCARDVAYFDYWGQGTLVTVSS[no letters for human IgG1 constant region with changes]GGGGSGGGGS[no letters for about 100 residues]YYGGYYSAWMDYWGQGTLVTVSSGGGGSGGGGSGGGGSDIQMTQSPSSLSASVGDRVTITCRASQSISSYLNWYQQKPGKAPKLLIYAASSLQSGVPSRFSGSGSGTDFTLTISSLQPEDFATYYCQQTYGYLHTFGQGTKLEIK
chain 2: DIQMTQSPSSLSASVGDRVTITCRASQSISSYLNWYQQKPGKAPKLLIYAASSLQSGVPSRFSGSGSGTDFTLTISSLQPEDFATYYCQQYYIPHTFGQGTKLEIKRTVAAPSVFIFPPSDEQLKSGTASVVCLLNNFYPREAKVQWKVDNALQSGNSQESVTEQDSKDSTYSLSSTLTLSKADYEKHKVYACEVTHQGLSSPVTKSFNRGEC
- EC50: 3.73 nM

B2: 1202-1210 (bispecific antibody)
heavy: EVQLLESGGGLVQPGGSLRLSCAASGFTFYGSSMSWVRQAPGKGLEWVSSIYYGSSGTYYADSVKGRFTISRDNSKNTLYLQMNSLRAEDTAVYYCARSYYGYFDYWGQGTLVTVSS[no letters for human IgG1 constant region with changes]GGGGSGGGGS[no letters for about 100 residues]YYGGYYSAWMDYWGQGTLVTVSSGGGGSGGGGSGGGGSDIQMTQSPSSLSASVGDRVTITCRASQSISSYLNWYQQKPGKAPKLLIYAASSLQSGVPSRFSGSGSGTDFTLTISSLQPEDFATYYCQQTYGYLHTFGQGTKLEIK
light: DIQMTQSPSSLSASVGDRVTITCRASQSISSYLNWYQQKPGKAPKLLIYAASSLQSGVPSRFSGSGSGTDFTLTISSLQPEDFATYYCQQYYTVVPFTFGQGTKLEIKRTVAAPSVFIFPPSDEQLKSGTASVVCLLNNFYPREAKVQWKVDNALQSGNSQESVTEQDSKDSTYSLSSTLTLSKADYEKHKVYACEVTHQGLSSPVTKSFNRGEC
- EC50: 1.2 nM

B3: 1204-1210 (bispecific antibody)
heavy: EVQLLESGGGLVQPGGSLRLSCAASGFTFSSYYMGWVRQAPGKGLEWVSGIGSYYGYTGYADSVKGRFTISRDNSKNTLYLQMNSLRAEDTAVYYCARAYYDYNYYYAYFDYWGQGTLVTVSS[no letters for human IgG1 constant region with changes]GGGGSGGGGS[no letters for about 100 residues]YYGGYYSAWMDYWGQGTLVTVSSGGGGSGGGGSGGGGSDIQMTQSPSSLSASVGDRVTITCRASQSISSYLNWYQQKPGKAPKLLIYAASSLQSGVPSRFSGSGSGTDFTLTISSLQPEDFATYYCQQTYGYLHTFGQGTKLEIK
light: B2 light with Y91S, Y92V, T93P, V94H, V95Y
- EC50: 0.73 nM

B4: 1214-1210 (bispecific antibody)
heavy: EVQLLESGGGLVQPGGSLRLSCAASGFTFSSYAMSWVRQAPGKGLEWVSSIGSGGGYTGYADSVKGRFTISRDNSKNTLYLQMNSLRAEDTAVYYCARVGHPFDYWGQGTLVTVSS[no letters for human IgG1 constant region with changes]GGGGSGGGGS[no letters for about 100 residues]YYGGYYSAWMDYWGQGTLVTVSSGGGGSGGGGSGGGGSDIQMTQSPSSLSASVGDRVTITCRASQSISSYLNWYQQKPGKAPKLLIYAASSLQSGVPSRFSGSGSGTDFTLTISSLQPEDFATYYCQQTYGYLHTFGQGTKLEIK
light: B1 chain 2 with Y91D, Y92A, I93Y
- EC50: 0.19 nM

B5: 1620-1210 (bispecific antibody)
heavy: EVQLLESGGGLVQPGGSLRLSCAASGFTFSGYYMYWVRQAPGKGLEWVSGISSSGSYTYYADSVKGRFTISRDNSKNTLYLQMNSLRAEDTAVYYCARSVGPYFDYWGQGTLVTVSS[no letters for human IgG1 constant region with changes]GGGGSGGGGS[no letters for about 100 residues]YYGGYYSAWMDYWGQGTLVTVSSGGGGSGGGGSGGGGSDIQMTQSPSSLSASVGDRVTITCRASQSISSYLNWYQQKPGKAPKLLIYAASSLQSGVPSRFSGSGSGTDFTLTISSLQPEDFATYYCQQTYGYLHTFGQGTKLEIK
light: B1 chain 2 with Y91G, Y92V, I93G, H95Y
- EC50: 1.74 nM

B6: 1210-1202 (bispecific antibody)
heavy: [no letters for about 100 residues]YYGGYYSAWMDYWGQGTLVTVSS[no letters for human IgG1 constant region with changes]GGGGSGGGGSEVQLLESGGGLVQPGGSLRLSCAASGFTFYGSSMSWVRQAPGKGLEWVSSIYYGSSGTYYADSVKGRFTISRDNSKNTLYLQMNSLRAEDTAVYYCARSYYGYFDYWGQGTLVTVSSGGGGSGGGGSGGGGSDIQMTQSPSSLSASVGDRVTITCRASQSISSYLNWYQQKPGKAPKLLIYAASSLQSGVPSRFSGSGSGTDFTLTISSLQPEDFATYYCQQYYTVVPFTFGQGTKLEIK
light: DIQMTQSPSSLSASVGDRVTITCRASQSISSYLNWYQQKPGKAPKLLIYAASSLQSGVPSRFSGSGSGTDFTLTISSLQPEDFATYYCQQTYGYLHTFGQGTKLEIKRTVAAPSVFIFPPSDEQLKSGTASVVCLLNNFYPREAKVQWKVDNALQSGNSQESVTEQDSKDSTYSLSSTLTLSKADYEKHKVYACEVTHQGLSSPVTKSFNRGEC
- EC50: 0.28 nM

B7: 1210-1204 (bispecific antibody)
heavy: [no letters for about 100 residues]YYGGYYSAWMDYWGQGTLVTVSS[no letters for human IgG1 constant region with changes]GGGGSGGGGSEVQLLESGGGLVQPGGSLRLSCAASGFTFSSYYMGWVRQAPGKGLEWVSGIGSYYGYTGYADSVKGRFTISRDNSKNTLYLQMNSLRAEDTAVYYCARAYYDYNYYYAYFDYWGQGTLVTVSSGGGGSGGGGSGGGGSDIQMTQSPSSLSASVGDRVTITCRASQSISSYLNWYQQKPGKAPKLLIYAASSLQSGVPSRFSGSGSGTDFTLTISSLQPEDFATYYCQQSVPHYPFTFGQGTKLEIK
light: B6 light
- EC50: 0.28 nM

B8: 1200-1212 (bispecific antibody)
heavy: EVQLLESGGGLVQPGGSLRLSCAASGFTFSSYAMSWVRQAPGKGLEWVSGISGGGGGTYYADSVKGRFTISRDNSKNTLYLQMNSLRAEDTAVYYCARDVAYFDYWGQGTLVTVSS[no letters for human IgG1 constant region with changes]GGGGSGGGGSEVQLLESGGGLVQPGGSLRLSCAASGFTFSSYAMSWVRQAPGKGLEWVSYISSYGGYTSYADSVKGRFTISRDNSKNTLYLQMNSLRAEDTAVYYCARYHSGVLDYWGQGTLVTVSSGGGGSGGGGSGGGGSDIQMTQSPSSLSASVGDRVTITCRASQSISSYLNWYQQKPGKAPKLLIYAASSLQSGVPSRFSGSGSGTDFTLTISSLQPEDFATYYCQQYYYHYLLTFGQGTKLEIK
light: B1 chain 2
- EC50: 1.55 nM

B9: 1202-1212 (bispecific antibody)
heavy: EVQLLESGGGLVQPGGSLRLSCAASGFTFYGSSMSWVRQAPGKGLEWVSSIYYGSSGTYYADSVKGRFTISRDNSKNTLYLQMNSLRAEDTAVYYCARSYYGYFDYWGQGTLVTVSS[no letters for human IgG1 constant region with changes]GGGGSGGGGSEVQLLESGGGLVQPGGSLRLSCAASGFTFSSYAMSWVRQAPGKGLEWVSYISSYGGYTSYADSVKGRFTISRDNSKNTLYLQMNSLRAEDTAVYYCARYHSGVLDYWGQGTLVTVSSGGGGSGGGGSGGGGSDIQMTQSPSSLSASVGDRVTITCRASQSISSYLNWYQQKPGKAPKLLIYAASSLQSGVPSRFSGSGSGTDFTLTISSLQPEDFATYYCQQYYYHYLLTFGQGTKLEIK
light: B2 light
- EC50: 1.67 nM

B10: 1204-1212 (bispecific antibody)
heavy: EVQLLESGGGLVQPGGSLRLSCAASGFTFSSYYMGWVRQAPGKGLEWVSGIGSYYGYTGYADSVKGRFTISRDNSKNTLYLQMNSLRAEDTAVYYCARAYYDYNYYYAYFDYWGQGTLVTVSS[no letters for human IgG1 constant region with changes]GGGGSGGGGSEVQLLESGGGLVQPGGSLRLSCAASGFTFSSYAMSWVRQAPGKGLEWVSYISSYGGYTSYADSVKGRFTISRDNSKNTLYLQMNSLRAEDTAVYYCARYHSGVLDYWGQGTLVTVSSGGGGSGGGGSGGGGSDIQMTQSPSSLSASVGDRVTITCRASQSISSYLNWYQQKPGKAPKLLIYAASSLQSGVPSRFSGSGSGTDFTLTISSLQPEDFATYYCQQYYYHYLLTFGQGTKLEIK
light: B2 light with Y91S, Y92V, T93P, V94H, V95Y
- EC50: 1.01 nM
